# The whole screen tested about 410,000 compounds, of which about 5,000 (1.2%) were called active. The inconclusive results got no clear call from the source; some entries with a clear call stand among them for comparison. Calls follow the shape of the dose curve; as a rule, active = well fitted inhibition curve with a large enough effect; inconclusive = small, poorly fitted or top-dose-only effect; inactive = no such curve, though single readings can be large or run the other way. Where the call is inconclusive, the potency comes from a doubtful curve fit.
# Experiment: qHTS for Inhibitors of TGF-b; also: nearly all actives have a fitted effect of over 65% in size
# Conditions: HepG2 CAGA-GFP TGF-b/SMAD3 reporter, GFP fluorescence, 18 h, TGF-beta stimulated, 500 pg/mL final; series mostly up to 46.1 µM
# In short: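 TGF-beta reporter screen: HEPG2 CAGA-GFP, 1% FBS, 500 pg/mL TGF-beta final, 18 h; per-cell GFP summed per well; curves fitted and categorized by class.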
# Potency is read from the fitted curve at half-maximal effect; tags tell the direction and shape of the fitted curve.
row,SMILES,Potency
1,CCN1CCc2c(sc(-n3cccc3)c2C(C)NC(=O)Nc2ccccc2C)C1 (configuration not stated),"inconclusive: 35.5 µM [inhibitor, single point]"
2,Cc1cc(C)c2nc(NC(=O)C3CC(=O)N(Cc4ccco4)C3)sc2c1 (configuration not stated),inactive
3,CCC1CCCCN1CC(=O)c1c(C)[nH]c2ccccc12 (configuration not stated),"inconclusive: 15.8 µM [inhibitor, single point]"
4,Cc1cc(NC2=CC(=O)C(=O)c3ccccc32)no1,"inconclusive: 25.1 µM [inhibitor, single point]"
5,O=C(CCn1c(=O)c2cccn2c2cccnc21)NCCCN1CCN(c2ccc(F)cc2)CC1,"inconclusive: 20 µM [inhibitor, single point]"
6,Cc1ccc(NC(=O)CN2C(=O)NC(C)(c3ccc(Cl)cc3)C2=O)c(Br)c1 (configuration not stated),"inconclusive: 7.94 µM [inhibitor, partial curve, poor fit]"
7,COCc1cccc(C(=O)NC(c2ccccc2)c2ccccc2)c1,"inconclusive: 6.31 µM [inhibitor, single point]"
8,CCN1CCN(c2ncnc3scc(-c4ccc(C)cc4)c23)CC1,inactive
9,COc1ccccc1N1CN(S(=O)(=O)c2ccc(C)cc2)c2nc3ccccc3nc21,"inconclusive: 35.5 µM [inhibitor, single point]"
10,O=C(O)C1CC(=O)N(Cc2cccnc2)C1 (configuration not stated),"inconclusive: 3.16 µM [inhibitor, single point]"
11,CS(=O)(=O)N1CCCC(C(=O)Nc2ccccc2F)C1 (configuration not stated),"inconclusive: 35.5 µM [inhibitor, partial curve, poor fit]"
12,CCc1cccc(NC(=O)CCS(=O)(=O)c2cc3c4c(c2)CCN4C(=O)CC3)c1,inactive
13,Cc1sc2ncn(CCn3cnc4sc(C)c(C)c4c3=O)c(=O)c2c1C,inactive
14,CC(=O)c1sc(NC(=O)CCS(=O)(=O)c2ccc(F)cc2)nc1C,"inconclusive: 25.1 µM [inhibitor, single point]"
15,C[C@@H](CN=[N+]=[N-])CN1CC[C@H](NC(=O)OCc2ccccc2)CCC1=O,"inconclusive: 2.82 µM [inhibitor, single point]"
16,COc1cc2c(=O)c(S(=O)(=O)c3ccccc3)cn(CC(=O)Nc3ccccc3C)c2cc1OC,inactive
17,COC(=O)c1cc(NC(=O)c2c(Cl)nc3sccn23)cc(C(=O)OC)c1,"inconclusive: 5.62 µM [inhibitor, single point]"
18,COCCCN1CCN(C2Cc3ccccc3Sc3ccc(Cl)cc32)CC1 (configuration not stated),"inconclusive: 22.4 µM [inhibitor, single point]"
19,CC1CCCN(CCCOc2ccc(Cl)cc2Br)C1 (configuration not stated),"inconclusive: 25.1 µM [inhibitor, single point]"
20,COc1ccccc1N1CCN(S(=O)(=O)c2ccc(-c3cnc(C4CC4)o3)cc2)CC1,"inconclusive: 11.2 µM [inhibitor, partial curve]"
21,CCOc1ccc(Nc2ccc3nonc3c2[N+](=O)[O-])cc1,inactive
22,COc1ccccc1NC(=O)C1CCN(S(=O)(=O)c2ccc3c(c2)NC(=O)C(C)S3)CC1 (configuration not stated),"inconclusive: 35.5 µM [inhibitor, single point]"
23,CCCN1CCN(CCCNC(=O)Cn2c(-c3cccs3)cc3cc(Cl)ccc32)CC1,"inconclusive: 22.4 µM [inhibitor, partial curve, poor fit]"

row,SMILES,Potency
1,COc1cc(S(=O)(=O)NC2CCCCC2)c(C)cc1C,inactive
2,Cc1ccc(S(=O)(=O)N2CCN(C(=O)CCC(=O)NCCc3ccc(F)cc3)CC2)cc1,"inconclusive: 35.5 µM [inhibitor, partial curve, poor fit]"
3,O=c1c(Cc2ccc(Cl)cc2)c(O)ccn1Cc1cccc(Cl)c1,inactive
4,Cc1ccc2occ(CC(=O)N3CCN(c4cccc(Cl)c4)CC3)c2c1,"inconclusive: 35.5 µM [inhibitor, single point]"
5,CC(=O)Nc1cccc(NC(=O)C(=O)NCCc2csc3nc(-c4ccccc4F)nn23)c1,inactive
6,Cc1ccc(N2CCN(CC(O)COc3cccc4ccccc34)CC2)cc1 (configuration not stated),"inconclusive: 15.8 µM [inhibitor, partial curve, poor fit]"
7,Cc1ccc(-c2nc(CS(=O)CC(=O)NCCCN3CCN(Cc4ccccc4)CC3)c(C)o2)cc1 (configuration not stated),"inconclusive: 7.08 µM [inhibitor, partial curve]"
8,O=C(N/N=C/C=C\c1ccccc1[N+](=O)[O-])c1cc(-c2ccc3ccccc3c2)n[nH]1,active: 12.6 µM
9,O=C(COc1ccccc1C(=O)NCc1ccccc1)Nc1ccc(Br)cc1,"inconclusive: 35.5 µM [inhibitor, single point]"
10,COc1ccccc1CC(=O)O/N=C(\N)Cc1cccc2ccccc12,"inconclusive: 3.55 µM [inhibitor, partial curve]"
11,CCOC(=O)C1(C)CCN1C(=O)c1ccoc1 (configuration not stated),inactive
12,Cc1cccc(C(O)c2ncc(-c3ccc(Cl)cc3)[nH]2)c1C (configuration not stated),"inconclusive: 35.5 µM [inhibitor, single point]"
13,Cc1ccc(C(=O)NCC(=O)OC(C)C(=O)Nc2ccc(N(C)C)cc2)s1 (configuration not stated),"inconclusive: 35.5 µM [inhibitor, single point]"
14,COc1ccc(/C(=C\Nc2ccc(C)c(C)c2)C(C)=O)cc1OC,"inconclusive: 6.31 µM [inhibitor, single point]"
15,O=C(O)CCC(NC(=O)OCc1ccccc1)C(=O)O (configuration not stated),"inconclusive: 0.794 µM [inhibitor, full curve, poor fit]"
16,COc1ccc(NC(=O)CN(C)C(=O)C2CC(=O)N(c3ccc4c(c3)OCCO4)C2)cc1 (configuration not stated),"inconclusive: 35.5 µM [inhibitor, single point]"
17,CCCn1c(NC(=O)C2CCN(C(=O)c3ccc(F)cc3)CC2)nc2ccccc21,"inconclusive: 35.5 µM [inhibitor, single point]"
18,CC1(C(=O)NCc2ccccc2)Cc2c(-c3ccccc3)ccnc2O1 (configuration not stated),"inconclusive: 10 µM [inhibitor, single point]"
19,Cn1cnc2c(SCc3ccccc3)ncnc21,inactive
20,CCCCc1ccc(NC(=O)CSc2nnc3[nH]c(=O)cc(C)n23)cc1,inactive
21,CCSc1nnc(NC(=O)CSc2nccn2-c2cc(C)cc(C)c2)s1,inactive
22,O=C1c2oc3ccccc3c(=O)c2C(c2cccs2)N1CCCN1CCOCC1 (configuration not stated),inactive
23,CCN(CC)c1ccc(S(=O)(=O)N2CCOCC2)cc1NC(=O)c1cc(=O)c2ccccc2o1,inactive

row,SMILES,Potency
1,C=CCOc1ccc(C2N3CC4(C)CN2CC(CCC)(C3)C4=O)cc1 (configuration not stated),"inconclusive: 11.2 µM [inhibitor, partial curve, poor fit]"
2,OC(CNCC1COc2ccccc2O1)COc1ccc(Cl)cc1 (configuration not stated),"inconclusive: 11.2 µM [inhibitor, partial curve, poor fit]"
3,O=C(N/N=C/c1ccc(O)cc1O)c1ccc(CN2C(=O)c3cccc4cccc2c34)cc1,"inconclusive: 12.6 µM [inhibitor, partial curve]"
4,O=C(COc1ccc(S(=O)(=O)NC2CCCCC2)cc1Cl)Nc1ccc2c(c1)OCO2,"inconclusive: 35.5 µM [inhibitor, single point]"
5,CC(=O)N1CCN(c2ccccc2NC(=O)c2ccc(-c3cccc([N+](=O)[O-])c3)o2)CC1,inactive
6,CCC(C(=O)Nc1c2c(nn1C(C)(C)C)CS(=O)(=O)C2)c1ccccc1 (configuration not stated),"inconclusive: 5.62 µM [inhibitor, full curve, poor fit]"
7,COc1ccc(CN(C)C(C)C(=O)Nc2ccc(S(=O)(=O)N3CCCCC3)cc2)cc1F (configuration not stated),"inconclusive: 35.5 µM [inhibitor, single point]"
8,CCOc1cc(-c2sc(Nc3ccc(CC)cc3)n[n+]2-c2ccccc2)ccc1OC,inactive
9,COc1ccccc1/C=C/C=N/n1c(COc2ccccc2)n[nH]c1=S,"inconclusive: 6.31 µM [inhibitor, single point]"
10,Cc1ccc(OCCC(=O)NNC(=O)c2nn(C)c(=O)c3ccccc23)cc1,inactive
11,O=C(Nc1ccccc1)Nc1cc(OCC(F)(F)F)cc(OCC(F)(F)F)c1,"inconclusive: 3.55 µM [inhibitor, full curve, poor fit]"
12,Cc1ccccc1OCC(=O)N/N=C/c1ccc2c(c1)OCCO2,"inconclusive: 35.5 µM [inhibitor, single point]"
13,CC(C)NC(=S)N/N=C/c1ccc(C(C)(C)C)cc1,"inconclusive: 35.5 µM [inhibitor, single point]"
14,CCCCC1CC1C(=O)Nc1ccc(OC)c(OC)c1 (configuration not stated),"inconclusive: 11.2 µM [inhibitor, single point]"
15,O=C(CNC(=O)c1ccccc1Br)N/N=C/c1ccc(O)cc1,inactive
16,COc1cccc(-c2ccc3c(N)c(C(=O)Nc4ccccc4C)sc3n2)c1,"inconclusive: 20 µM [inhibitor, single point]"
17,O=C1C(NS(=O)(=O)c2ccc(Cl)cc2)=C(N2CCCCC2)C(=O)c2ccccc21,"inconclusive: 28.2 µM [inhibitor, single point]"
18,Nc1ccc(-c2c3ccc(=O)cc-3oc3cc(O)ccc23)c(C(=O)O)c1,"inconclusive: 35.5 µM [inhibitor, single point]"
19,Cc1ccc(-c2cc3nc(C)cc(NCc4ccco4)n3n2)cc1,inactive
20,CC(=O)Nc1ccc(S(=O)(=O)N(Cc2ccccc2)Cc2ccccc2)cc1,"inconclusive: 31.6 µM [inhibitor, single point]"
21,COc1ccccc1CC(=O)Nc1nc(-c2ccc(F)c(F)c2)cs1,"inconclusive: 35.5 µM [inhibitor, single point]"

# From PubChem BioAssay AID588855 (National Center for Advancing Translational Sciences (NCATS), 2011)
